Results: the supplement of paper PMC4723716
± gives the uncertainty stated by the source. In all, about 9,900 compounds were measured (“viability index relative to DMSO control”: median about 1, lowest 2% from about 0.85 on). This is one part of the list.

These molecules were tested on Plasmodium falciparum NF54 stage V gametocytes (assay: viability index relative to DMSO control (fraction); higher = less gametocyte killing). Details: 2.5 µM, library set: Broad Institute DOS, incubation time: 72 h.
Experimental: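 Broad DOS informer set and blood-stage-active DOS compounds screened in duplicate at 2.5 µM against P. falciparum NF54 stage V gametocytes with the serum-free one-step SaLSSA (1536-well): 72 h at 37 °C under low oxygen, then saponin lysis and MitoTracker Red CMXRos staining, with high-content imaging. Viability index = viable-object count divided by the plate mean of DMSO wells (0 = killed, about 1 = inactive).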

SMILES	viability index
Cc1ccccc1S(=O)(=O)N1CC[C@@H]2[C@@H](CO)Nc3ccc(-c4ccc(F)cc4)cc3[C@@H]21	1.1 ± 0.06
COc1ccccc1NC(=O)N1CC[C@@H]2[C@H]1c1cc(C#Cc3cccc(F)c3)ccc1N(C)[C@@H]2CO	1.01 ± 0.023
OC[C@@H]1[C@@H](c2ccccc2)C2(CN(Cc3ccccn3)C2)N1Cc1cncnc1	1.09 ± 0.054
Cc1noc(C)c1S(=O)(=O)Nc1ccc2c(c1)CC(=O)N([C@H](C)CO)C[C@@H](C)[C@@H](CN(C)Cc1ccc(Oc3ccccc3)cc1)O2	0.948 ± 0.021
COc1ccccc1NC(=O)N1CCCCN2[C@H](CO)[C@H](c3ccc(-c4cccc(C#N)c4)cc3)[C@H]2C1	1.07 ± 0.011
CCCNC(=O)C[C@@H]1CC[C@H]2[C@@H](COC[C@@H](O)CN2C(=O)c2ccc(F)cc2)O1	1.05 ± 0.025
C[C@H](CO)N1C[C@H](C)[C@H](CN(C)C(=O)Nc2ccc3c(c2)OCO3)OCc2ccccc2-c2c(n(C)c3ccccc23)C1=O	1.02 ± 0.057
CO[C@H]1CN(C)C(=O)c2ccc(NS(=O)(=O)CC(F)(F)F)cc2OC[C@@H](C)N(Cc2nccs2)C[C@@H]1C	1.05 ± 0.028
COc1cccc(NC(=O)C[C@H]2CC[C@@H]3[C@@H](COc4ccc(NC(=O)C5CC5)cc4C(=O)N3C)O2)c1	1.24 ± 0.05
COc1ccc(NC(=O)N2C[C@@]3(C2)CN([C@@H](CO)c2[nH]c4cc(OC)ccc4c32)C(C)=O)cc1	1.01 ± 0.1
COc1ccc2c3c([C@@H](CO)N(Cc4ccccc4Cl)C[C@]33CCN(CC3)C(=O)CC3CC3)n(C)c2c1	0.939 ± 0.025
CCCNC(=O)N(C)C[C@H]1Oc2cc(C#C[C@@H](C)O)ccc2S(=O)(=O)N([C@H](C)CO)C[C@H]1C	1.08 ± 0.019
CCCC(=O)N1CC[C@@]2(CC1)CN([C@H](CO)c1c2c2ccc(OC)cc2n1C)C(C)=O	1.05 ± 0.14
C[C@@H]1CCCCO[C@@H](CN(C)C(=O)Cc2ccccc2)[C@H](C)CN([C@H](C)CO)C(=O)c2cc(NS(C)(=O)=O)ccc2O1	1.12 ± 0.058
C[C@H](NC(=O)[C@H]1[C@H](CO)[C@H]2Cn3c(ccc(-c4ccccc4)c3=O)[C@H]2N1C)c1ccccc1	1.03 ± 0.049
COc1ccc(-c2ccc([C@@H]3[C@H]4CN(C(=O)Cc5ccccn5)CC(=O)N4[C@H]3CO)cc2)cc1	0.977 ± 0.015
COCCNC(=O)C[C@@H]1CC[C@H]2[C@@H](COC[C@@H](O)CN2S(=O)(=O)c2ccccc2F)O1	1 ± 0.017
CN(C)CC(=O)N1C[C@@H]2[C@H](c3ccccc31)[C@H](CO)N2C(=O)c1ccccn1	1.03 ± 0.061
CCC(=O)N1[C@H](CN(CC)C(=O)c2cccc(F)c2)[C@H](c2ccccc2)[C@@H]1CO	0.987 ± 0.011
COc1ccccc1-c1ccccc1[C@@H]1[C@@H](C#N)N(C(=O)C2CCOCC2)[C@H]1CO	1.05 ± 0.16
O=C(c1cnccn1)N1CC(=O)N2[C@H](CO)[C@H](c3ccc(-c4cccc(F)c4)cc3)[C@@H]2C1	1.04 ± 0.1
COCC(=O)Nc1ccc2c(c1)[C@H]1C[C@@H](CC(=O)NCc3ccc4c(c3)OCO4)O[C@@H](CO)[C@H]1O2	1.06 ± 0.013
O=C(Nc1ccc(C(F)(F)F)cc1)Nc1ccc2c(c1)[C@@H]1C[C@H](CC(=O)N3CCc4ccccc4C3)O[C@@H](CO)[C@@H]1O2	0.939 ± 0.014
CO[C@H]1CN(C)C(=O)c2cc(NS(=O)(=O)c3ccc(Cl)cc3)ccc2OC[C@@H](C)N(C(=O)NC(C)C)C[C@H]1C	1.08 ± 0.087

SMILES	viability index
Cc1ccc(-c2ccc([C@H]3[C@@H](CO)N4C(=O)CN(C(=O)NC(C)C)C[C@@H]34)cc2)cc1	1.06 ± 0.066
Cc1ccc(-c2ccccc2[C@@H]2[C@H](C#N)N(c3ncc(-c4ccccc4)s3)[C@H]2CO)cc1	1.18 ± 0.093
C[C@@H]1CN([C@H](C)CO)C(=O)CCCn2nncc2CO[C@@H]1CN(C)C(=O)c1cc(-c2ccccc2)on1	0.984 ± 0.055
C[C@H]1CN([C@@H](C)CO)C(=O)Cc2cc(NS(=O)(=O)c3ccc(F)cc3)ccc2O[C@H]1CN(C)Cc1ccncc1	1 ± 0.12
COc1cccc(S(=O)(=O)N2C[C@@H](O)COC[C@@H]3O[C@H](CC(=O)N4CCN(c5ccccc5)CC4)CC[C@H]32)c1	1.03 ± 0.013
CCCC(=O)N1C[C@@]2(C1)CN(Cc1ccccc1F)[C@H](CO)c1c2c2ccc(OC)cc2n1C	0.935 ± 0.17
CC[C@H]1C/C=C\C[C@@H](c2ccccc2)NC(=O)CCC(=O)N1	1.04 ± 0.026
COc1cccc(CN2C[C@@H]3N[C@H](C2)[C@@H]3c2ccc(-c3ccccc3C)cc2)c1	1.06 ± 0.094
C[C@@H]1CN([C@@H](C)CO)C(=O)c2cc(NS(C)(=O)=O)ccc2O[C@@H]1CN(C)C	1.01 ± 0.02
O=C(C[C@H]1CC[C@H]2[C@@H](COC[C@H](O)CN2CCC(F)(F)F)O1)NCC1CC1	1.06 ± 0.055
CCCNC(=O)N1[C@@H]2CNC[C@H]1[C@H]2c1ccc(-c2ccccc2)cc1	1.003 ± 0.0091
CCCC(=O)Nc1ccc2c(c1)C(=O)N(C)C[C@H](OC)[C@@H](C)CN(Cc1ccc(F)cc1)[C@H](C)CO2	0.95 ± 0.032
CN1C(=O)c2cc(NC(=O)c3cccc(F)c3)ccc2OC[C@@H]2O[C@@H](CC(=O)NCc3ccccc3Cl)CC[C@@H]21	0.999 ± 0.063
CO[C@H]1CC[C@H]2CCOc3c(C#N)cccc3C(=O)N(C)C[C@H](c3ccccc3)CC(=O)N(C)C[C@H]1O2	1.017 ± 0.0038
CN1C(=O)c2cc(NC(=O)Cc3cccs3)ccc2OC[C@H]2O[C@@H](CC(=O)NCCc3ccncc3)CC[C@H]21	1.16 ± 0.07
COc1ccccc1NC(=O)N[C@H]1CC[C@H](CCNS(=O)(=O)c2ccc(Cl)cc2)O[C@H]1CO	0.918 ± 0.015
COc1cccc(CNC(=O)C[C@@H]2CC[C@@H]3[C@H](COc4ccc(NC(=O)c5cccs5)cc4C(=O)N3C)O2)c1	0.94 ± 0.041
C/C=C/c1cnc2c(c1)C(=O)N([C@H](C)CO)C[C@H](C)[C@@H](CN(C)C(=O)Nc1cccc(OC)c1)O2	1.031 ± 0.009
C[C@H]1CN([C@@H](C)CO)C(=O)c2cc(NC(=O)C3CC3)ccc2O[C@H]1CN(C)S(=O)(=O)c1ccccc1	1.09 ± 0.076
O=C(c1cnccn1)N1C[C@H]2[C@@H](c3ccccc31)[C@@H](CO)N2CC1CCCC1	1.06 ± 0.093
Cc1ccc(S(=O)(=O)Nc2ccc3c(c2)C(=O)N([C@H](C)CO)C[C@@H](C)[C@H](CN(C)S(=O)(=O)c2cccs2)OCCCC[C@@H](C)O3)cc1	1.04 ± 0.032
CCNC(=O)c1cc2c(c(-c3cccc(-c4cccc(C(=O)N(C)C)c4)c3)n1)[C@H](CCO)N([S@@](=O)C(C)(C)C)C2	1.07 ± 0.016
C[C@@H]1CN([C@H](C)CO)C(=O)Cc2cc(NS(=O)(=O)c3cn(C)cn3)ccc2O[C@@H]1CN(C)Cc1ccc2c(c1)OCO2	0.962 ± 0.15
O=C(Nc1ccccc1)N1CC(=O)N2[C@H](C1)[C@H](c1ccc(C#CC3CCCCC3)cc1)[C@@H]2CO	1.12 ± 0.054

SMILES	viability index
CN1CCN(C(=O)c2cc3c(c(-c4cccc(C#CCC5CCCC5)c4)n2)[C@H](CCO)N(S(=O)C(C)(C)C)C3)CC1 (stereo not given in full)	1.04 ± 0.014
COc1cc(CN2C[C@@H]3N[C@H](C2)[C@H]3c2ccc(-c3ccc(C#N)cc3)cc2)cc(OC)c1	1.03 ± 0.07
O=C(Nc1cccc(F)c1)N1CCCCN2[C@H](CO)[C@@H](c3ccc(C#Cc4cccnc4)cc3)[C@@H]2C1	1.07 ± 0.078
O=C(C[C@@H]1C[C@@H]2c3cc(NC(=O)Nc4ccccc4F)ccc3O[C@@H]2[C@H](CO)O1)NCc1ccccn1	1.03 ± 0.059
C[C@@H]1CN([C@@H](C)CO)C(=O)CCCn2nncc2CO[C@@H]1CN(C)C(=O)CCC(F)(F)F	1.04 ± 0.055
CCCC(=O)Nc1ccc2c(c1)OC[C@H](C)N(S(=O)(=O)c1cn(C)cn1)C[C@@H](C)[C@@H](OC)CN(C)C2=O	1.06 ± 0.026
COc1ccc2c3c([nH]c2c1)[C@@H](CO)N(C)C[C@]31CCN(CC1)C(=O)c1ccccn1	0.889 ± 0.13
C[C@@H]1CN([C@@H](C)CO)C(=O)Cc2cc(NC(=O)Nc3ccc(F)cc3)ccc2O[C@H]1CN(C)S(C)(=O)=O	1.05 ± 0.012
COc1ccccc1CNC(=O)C[C@H]1C=C[C@@H](NC(=O)CC2CC2)[C@@H](CO)O1	1.04 ± 0.051
C/C=C/c1ccc([C@H]2[C@@H](CO)N[C@@H]2CNC(=O)C2CC2)cc1	1.06 ± 0.012
C[C@H]1CN([C@@H](C)CO)C(=O)CCCn2nncc2CO[C@H]1CN(C)C(=O)c1ccc2ccn(C)c2c1	1.015 ± 0.0067
CCCC#Cc1cnc2c(c1)C(=O)N([C@@H](C)CO)C[C@@H](C)[C@@H](CN(C)C(=O)Nc1cc(F)ccc1F)O2	1.02 ± 0.012
N#C[C@H]1N[C@H](CO)[C@@H]1c1ccc(C2=CCCC2)cc1	1.035 ± 0.0096
CC(C)[C@@H]1C(=O)N[C@@H](c2cccc(Cl)c2)C/C=C/C[C@@H](C)Oc2ccccc2C(=O)N1C.CC(C)[C@@H]1C(=O)N[C@@H](c2cccc(Cl)c2)C/C=C\C[C@@H](C)Oc2ccccc2C(=O)N1C	0.993 ± 0.049
COCC#Cc1ccc([C@@H]2[C@H]3CN(C(=O)c4ccncc4)CC(=O)N3[C@H]2CO)cc1	1.05 ± 0.0086
C/C=C/c1ccc([C@@H]2[C@@H](CO)N3CCCCN(CCC(F)(F)F)C[C@@H]23)cc1	1.06 ± 0.049
C[C@@H]1CCCCO[C@@H](CN(C)S(=O)(=O)c2cn(C)cn2)[C@@H](C)CN([C@H](C)CO)C(=O)c2cc(NC(=O)Nc3cccc4ccccc34)ccc2O1	1.05 ± 0.042
COc1ccc(CN2[C@H](CO)[C@H]3c4ccccc4NC[C@H]32)cc1	1.09 ± 0.013
C[C@H](CO)N1C[C@H](C)[C@H](CN(C)Cc2ccc(Oc3ccccc3)cc2)Oc2ccc(N(C)C)cc2C1=O	1.01 ± 0.043
COCCNC(=O)C[C@H]1CC[C@@H]2[C@H](COC[C@@H](O)CN2Cc2ccc(Cl)c(Cl)c2)O1	1.06 ± 0.066
CC[C@H]1C/C=C\C[C@H](c2ccccc2)NC(=O)CCC(=O)N1	1.08 ± 0.011
N#Cc1ccc(-c2ccc3c(c2)[C@H]2[C@H](CCN2C(=O)C2CCCCC2)[C@H](CO)N3)cc1	1.11 ± 0.057
